Experimental data: publication PMC4336329 (PLoS ONE, 2015)
Screen size: about 310,000 compounds; about 2,200 (0.71%) showed an effect of 50% or more. The effect is printed as a negative number. Some of the results follow.

What follows are molecules tested against human ether-à-go-go-related gene (hERG) potassium channel (human, UniProt Q12809) (assay: primary screen, population patch clamp on CHO cells stably expressing hERG).
human ether-à-go-go-related gene (hERG) potassium channel, sequence (Q12809 whole entry, looked up): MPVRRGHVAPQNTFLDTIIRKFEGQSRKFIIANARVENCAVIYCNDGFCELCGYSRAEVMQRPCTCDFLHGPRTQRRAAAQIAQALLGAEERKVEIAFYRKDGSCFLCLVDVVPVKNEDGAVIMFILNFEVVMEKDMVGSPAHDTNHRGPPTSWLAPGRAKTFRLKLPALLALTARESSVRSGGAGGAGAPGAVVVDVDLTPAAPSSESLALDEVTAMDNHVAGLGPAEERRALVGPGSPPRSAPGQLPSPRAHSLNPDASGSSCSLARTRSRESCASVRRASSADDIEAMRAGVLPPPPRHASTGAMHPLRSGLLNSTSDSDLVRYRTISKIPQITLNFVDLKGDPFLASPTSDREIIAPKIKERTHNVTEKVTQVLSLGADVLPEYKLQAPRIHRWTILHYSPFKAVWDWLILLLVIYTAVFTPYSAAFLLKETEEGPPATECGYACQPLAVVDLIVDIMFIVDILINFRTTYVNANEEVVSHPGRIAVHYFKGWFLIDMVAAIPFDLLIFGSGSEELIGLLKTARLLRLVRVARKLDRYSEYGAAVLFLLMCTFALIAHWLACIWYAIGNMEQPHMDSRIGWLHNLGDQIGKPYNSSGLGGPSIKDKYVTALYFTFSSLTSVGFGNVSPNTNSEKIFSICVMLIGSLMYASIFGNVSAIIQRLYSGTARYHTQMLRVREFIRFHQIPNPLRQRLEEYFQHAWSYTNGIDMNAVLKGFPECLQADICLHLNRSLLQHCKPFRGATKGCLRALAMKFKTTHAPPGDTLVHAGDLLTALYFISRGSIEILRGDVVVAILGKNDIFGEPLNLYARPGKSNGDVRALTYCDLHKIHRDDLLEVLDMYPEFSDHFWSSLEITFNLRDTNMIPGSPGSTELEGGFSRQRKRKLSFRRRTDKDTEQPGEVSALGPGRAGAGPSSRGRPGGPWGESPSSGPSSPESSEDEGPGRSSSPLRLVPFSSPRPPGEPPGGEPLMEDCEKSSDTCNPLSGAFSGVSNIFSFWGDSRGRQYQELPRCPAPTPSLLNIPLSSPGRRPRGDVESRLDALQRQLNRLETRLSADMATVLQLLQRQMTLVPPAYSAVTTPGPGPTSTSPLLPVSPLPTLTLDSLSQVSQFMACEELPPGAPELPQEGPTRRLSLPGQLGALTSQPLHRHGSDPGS

| SMILES | hERG current change (%, negative = inhibition) at 1uM [%] |
| --- | --- |
| Cc1ccc(NC(=O)Cc2cc(C(=O)O)c3ccccc3n2)c(C)c1 | 8.8 |
| Cc1cccc2c(=O)c(C(=O)NCCCN3CCOCC3)c[nH]c12 | 8.52 |
| CCOC(=O)CC1C(=O)NCCN1C(=O)c1ccc(Cl)c(Cl)c1 (stereo not drawn) | 15.7 |
| Cn1cccc1CC(=O)NNC(=O)Nc1cccc(Cl)c1 | 1.24 |
| COCCN1Cc2cccc(C(=O)Nc3ccc(S(=O)(=O)N4CCCCCC4)cc3)c2C1=O | 15.3 |
| Cc1ccnc(NC(=O)Cn2cc([N+](=O)[O-])cn2)c1 | 10.4 |
| Cc1ccc(C(=O)Nc2cccc(C(F)(F)F)c2)cc1NC(=O)c1csc(-c2ccncc2)n1 | -17.1 |
| Cc1ccc(O)c(CNc2nccs2)c1 | 10 |
| CCOC(=O)c1ccc(COc2nc3ccccc3nc2-c2ccccc2NC(C)=O)o1 | 8.92 |
| Cc1cccc(N2CCN(C(=O)c3ccc(Cl)c(NC4=NC5CS(=O)(=O)CC5S4)c3)CC2C)c1 (stereo not drawn) | 13.5 |
| COC(=O)C1=C(c2ccc(F)cc2OCc2ccccc2)C[C@@H]2CC[C@H]1N2C(=O)NCc1ccc(OC)cc1 | 11.1 |
| CCOc1ccc(-c2c(C(=O)N/N=C(\C)c3cccnc3)nnn2-c2nonc2N)cc1 | 19 |
| CN1Cc2sc(NC(=S)NC(=O)c3ccccc3)c(C#N)c2CC1(C)C | -2.86 |
| Cc1ccc(C)c(OCC(=O)Nc2nonc2NC(=O)COc2cc(C)ccc2C)c1 | -20.6 |
| O=C(CCN1C(=O)C2C3C=CC(C3)C2C1=O)Nc1ccc2ncccc2c1 (stereo not drawn) | 18.8 |
| Cc1ccc(-c2nnn(CC(=O)Nc3nnc(C(C)C)s3)n2)cc1 | 9.97 |
| O=C(COC(=O)CCC(=O)c1cccs1)NC(=O)c1ccc(OC(F)F)cc1 | 10.9 |
| Cc1ccc(C(=O)Cc2cc3ccccc3oc2=O)c(C)c1 | 12.7 |
| COc1cc(NC(=O)CCNS(=O)(=O)c2cc(Br)cnc2N)cc(OC)c1 | 15.4 |
| Cc1noc(C)c1COc1ccc(C(=O)OC(C)C(=O)Nc2ccc(N3CCOCC3)cc2)cc1 (stereo not drawn) | 11.3 |
| COc1ccc(CCNc2oc(COc3ccccc3F)nc2C#N)cc1 | 5.07 |
| c1cncc(-c2nc3ccccc3s2)c1 | 5.73 |

| SMILES | hERG current change (%, negative = inhibition) at 1uM [%] |
| --- | --- |
| O=C(COC(=O)c1cnccn1)Nc1ccc(Cl)cc1C(F)(F)F | -5.39 |
| CCNC(=O)CN(C1CCCCC1)S(=O)(=O)c1ccc(F)cc1 | 5.37 |
| Cc1c(/C=N/NC(=O)c2cccnc2)cc(C#N)n1C | 13.7 |
| Cc1cc(C)c(S(=O)(=O)/N=C2\C=C(Nc3ccc(C(=O)O)cc3)C(=O)c3ccccc32)c(C)c1 | 7.5 |
| COc1ccc(CCNCc2ccc(OCc3ccc(Cl)nc3)c(OC)c2)cc1OC.Cl | -40.8 |
| COc1ccc2[nH]c3c(c2c1)CCN1C(=O)N([C@@H](C)C(=O)NCc2ccc(C)cc2)C(=O)[C@]31C | 6.3 |
| CSCCC(NC(=O)c1ccccc1)C(=O)N1CCN(C(C)=O)CC1 (stereo not drawn) | 13.8 |
| CN(N)C(=S)NCc1ccccc1 | 9.42 |
| Cc1ccc(S(=O)(=O)N2CCOCC2)cc1C(=O)O | 7.46 |
| CCN(CC)S(=O)(=O)c1ccc(OCC(=O)NCc2ccccc2)cc1 | 4.04 |
| CSc1nsc(SC)c1NC(=O)OCCc1ccccn1 | -0.591 |
| CCOC(=O)c1nn(-c2ccc3c(c2)CCN3C(C)=O)cc1O | 11.4 |
| CC(=O)Nc1cccc(NC(=O)CSc2nc(C)c(C)c(C)c2C#N)c1 | 12.8 |
| O=C(CSc1nc2[nH]ncc2c(=O)[nH]1)Nc1cccc([N+](=O)[O-])c1 | -14 |
| O=C(NC(Cc1ccccc1)C(=O)O)/C(=C\c1ccco1)NC(=O)c1ccccc1Br (stereo not drawn) | 11.1 |
| Cc1csc(NC(=O)CSc2nnc(CCNC(=O)c3cccs3)n2C)n1 | 7.3 |
| Cc1ccc(NC(=O)c2cccc3c2-c2ccccc2C3=O)cc1C | -0.741 |
| Cc1cc(C)nc(NS(=O)(=O)c2ccc(NC(=O)c3cccc(N4C(=O)CCC4=O)c3)cc2)n1 | -0.528 |
| COc1cc(CC(=O)Nc2nccs2)cc(OC)c1OC | 1.94 |
| O=C(NCCNc1ccc([N+](=O)[O-])cc1)c1ccco1 | -0.116 |
| O=c1c2ccccc2[nH]c(=S)n1-c1cccc(S(=O)(=O)N2CCCC2)c1 | 7.62 |
| CC(=O)c1ccc(NC(=S)Nc2ccc3cn[nH]c3c2)cc1 | 14.2 |

| SMILES | hERG current change (%, negative = inhibition) at 1uM [%] |
| --- | --- |
| COc1ccc(C(=O)Nc2cccc(C(=O)NCc3ccco3)c2)cc1 | 5.14 |
| O=C(O)c1ccccc1CSc1nc2ccccc2o1 | 14.8 |
| CCn1c(SCC(=O)Nc2ccccc2)nnc1-c1cccs1 | -13.8 |
| Cl.OC(CN1CCOCC1)CN(c1ccccc1)c1ccccc1 (stereo not drawn) | 6.82 |
| CCN(C(=O)COC(=O)Cc1c(F)cccc1Cl)c1c(N)n(Cc2ccccc2)c(=O)[nH]c1=O | 13.5 |
| Cl.O=C(CCN1CCCCCC1)Nc1ccc(F)cc1 | -21.3 |
| Cl.O=C(CSc1nc(O)cc(=O)n1-c1ccccc1)Nc1ccccn1 | 10.3 |
| Cc1ccc(S(=O)(=O)N2CCN(Cc3cc(C(C)C)ccc3O)CC2)cc1 | 9.31 |
| CCOC(=O)c1cc(-c2ccccc2)n(CCC(=O)N2CCN(c3ccccn3)CC2)c1C | 1.18 |
| CCOc1cc(/C=N/n2cnnc2)ccc1O | 17.1 |
| CCOc1ccc2c(=O)c(-c3ccc4c(c3)OCCCO4)c(C)oc2c1 | 11.7 |
| C/C(=N\NC(=O)CSc1nc2ccccc2s1)c1cccnc1 | 7.7 |
| COc1ccc(NS(=O)(=O)c2cc(NC(=O)c3ccc(F)cc3)ccc2OC)cc1 | 13.5 |
| COc1ccc(Cc2nnc(SCC(=O)Nc3ncc(C)s3)o2)cc1 | 1.23 |
| COC(=O)c1ccc(CSc2nccn2C)cc1 | 0.891 |
| CCOP(=O)(O)c1ccccc1OCCOc1ccccc1P(=O)(O)OCC | 13.7 |
| COc1ccc(NC(=O)CC2Oc3ccccc3NC2=O)cc1 (stereo not drawn) | 11.8 |
| CC(C)Cn1c(=O)c(C(=O)Nc2ccncc2)c(O)c2ccccc21 | -2.65 |
| COc1ccc(C(C)=O)cc1CSc1nc2ccccc2c(=O)n1-c1ccccc1C | 11.2 |
| Cc1c(C(c2ccc(O)cc2)c2c(O)c3ccccc3oc2=O)c(=O)n(-c2ccccc2)n1C (stereo not drawn) | 12 |
| O=C(Cn1cc(S(=O)(=O)Cc2ccccc2F)c2ccccc21)N1CCOCC1 | 12 |
| Cc1c(CN2CCC(n3nccc3NC(=O)C3CC3)CC2)[nH]c2ccccc12 | -34.9 |

| SMILES | hERG current change (%, negative = inhibition) at 1uM [%] |
| --- | --- |
| CCOC(=O)c1cnc(-n2nc(C)cc2C)nc1NC(C)c1ccccc1 (stereo not drawn) | 8.98 |
| Cc1ccc2[nH]c(=O)c(C(c3nnnn3C3CCCC3)N(Cc3cccnc3)Cc3ccco3)cc2c1 (stereo not drawn) | 8.5 |
| O=C(Cc1ccccc1)Nc1ccccc1N1CCOCC1 | 1.39 |
| CSc1nc(N)c(C#N)c(-c2ccccc2Cl)c1C#N | 9.93 |
| COC(=O)[C@H](CC(C)C)NC(=O)Nc1ccccc1F | 12.4 |
| O=C1c2cccc(OCC(=O)N3CCCc4ccccc43)c2CCN1Cc1ccc(F)cc1 | 11.8 |
| N#CCCn1cc(C(=O)O)c(-c2ccc3ccccc3c2)n1 | 4.8 |
| CC(=O)c1c(C)[nH]c(C(=O)CSc2nc3ccccc3c(=O)n2CCCN2CCOCC2)c1C | 8.71 |
| COC(=O)c1sccc1NC(=O)c1ccc(C#N)cc1 | 16.4 |
| COc1cc(/C=N/NC(=O)c2cc(-c3c(C)nn(-c4ccccc4)c3C)n[nH]2)ccc1O | 8.5 |
| Cc1c(C(=O)N2CCN(C)CC2)oc2ccc(Br)cc12 | 14.2 |
| O=C(NCC(=O)N1CCN(S(=O)(=O)c2ccccc2F)CC1)c1ccc(Br)o1 | 2.38 |
| CC(=O)Nc1nnc(SCC(=O)c2ccc(F)cc2)s1 | 4.92 |
| Cn1c(N2CCC(C(N)=O)CC2)nc2c1c(=O)n(Cc1cccc(Br)c1)c(=O)n2C | -20.3 |
| O=C(NCc1cccnc1)c1cccc(F)c1 | 5.29 |
| CCCC(C)C(=O)Nc1ncc(S(=O)(=O)c2ccc([N+](=O)[O-])cc2)s1 (stereo not drawn) | 14.6 |
| CC(C)=CCN1CCN(Cc2nc(-c3ccc(F)cc3)cs2)CC1CCO (stereo not drawn) | -47.8 |
| CCc1ccc(NC(=O)C(=S)NC2CCCCC2)cc1 | 12.6 |
| COc1ccccc1CNC(=O)[C@H](Cc1c[nH]c2ccccc12)NC(=O)[C@@H]1Cc2ccccc2CN1 | 9.74 |
| O=C(CCS(=O)NCc1ccccc1)NCc1ccccc1 (stereo not drawn) | 15.3 |
| Cc1ccc(CNC(=O)CCS(=O)(=O)c2cc3c(cc2C)NC(=O)CO3)cc1 | 2.98 |
